Laboratory results reported in PubChem BioAssay AID1346428 (National Center for Advancing Translational Sciences (NCATS), 2018).
Several values for one entry are separate records, joined by “and”; a condition that tells them apart may be missing. Identical values can stand only once. Screen size: about 48,000 compounds; about 1,200 (2.5%) were called active. Another 2% or so got no clear call; they are omitted.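 The calls were made as follows: active = activation of at least 60% and not above a set upper limit (about 1 call in 100 departs from these limits); inconclusive = activation of 40% to 60%, or above that upper limit; inactive = activation under 40%.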 This is one part of the list.

molecular target: Probable G-protein coupled receptor 32 (Homo sapiens) (UniProt O75388); assay: qHTS for Agonists of Human Resolvin D1 Receptor DRV1; details: CHO-K1 GPR32 beta-arrestin PathHunter luminescence, 90 min; at 76.9 µM; active compounds read high; zero percent set by DMSO-only wells; also: 0% is about no effect
Chain of UniProt O75388 (O75388 whole entry, looked up, the tested form may be a part): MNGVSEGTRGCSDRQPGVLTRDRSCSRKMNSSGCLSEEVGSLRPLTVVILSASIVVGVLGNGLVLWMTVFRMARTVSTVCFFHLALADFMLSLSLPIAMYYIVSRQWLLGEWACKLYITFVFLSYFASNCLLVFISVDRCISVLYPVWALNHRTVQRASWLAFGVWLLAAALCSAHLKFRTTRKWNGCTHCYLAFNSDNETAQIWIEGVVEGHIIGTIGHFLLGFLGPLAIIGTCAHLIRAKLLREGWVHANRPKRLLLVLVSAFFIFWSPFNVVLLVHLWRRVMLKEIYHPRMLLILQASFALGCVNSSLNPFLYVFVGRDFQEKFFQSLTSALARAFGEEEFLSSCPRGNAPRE
Summary of the method: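 GPR32 activation in stably transfected CHO-K1 cells, detected as beta-arrestin recruitment by enzyme-fragment complementation. Compound exposure: 90 min, 37 °C.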

activation, inactive:
CCn1c(=O)n(-c2ccc3c(c2)OCO3)c2nc(-c3cccc(OC)c3OC)nc(C(N)=O)c21 -1.99%
CCCn1cc(S(=O)(=O)c2ccc(C)c(C)c2)c(=O)c2cc(F)c(N3CCC(C)CC3)cc21 1.84%
CCOc1ccccc1N(C)C(=O)c1cc2c(s1)-c1ccccc1OC2 -34.1%
CCc1ccccc1NC(=O)Cn1c(=O)n(-c2cccc(C)c2)c(=O)c2c1c1cc(OC)ccc1n2C -7.92%
CC(C)OCCCNC(=O)Cc1ccc(NC(=O)N2CCCCc3ccccc32)cc1 -6.94%
CCOC(=O)CC(NC(=O)c1cc2c(=O)n3cccc(C)c3nc2s1)c1ccc(OCC)c(OC)c1 (stereo not drawn) -14.9%
CCCCc1nc(SCC(=O)Nc2ccc(S(N)(=O)=O)cc2)n[nH]1 2.2%
Cc1ccc(NC(=O)Cn2c(=O)n(CC(=O)NCCc3ccccc3)c(=O)c3ccccc32)cc1C 8.13%
Cc1ccc(S(=O)(=O)c2cn(CC(=O)Nc3ccc(F)cc3)c3cc4c(cc3c2=O)OCO4)cc1 -9.94%
COc1ccc(-c2noc(CCC(=O)Nc3cccc(C)c3C)n2)cc1OC 6.73%
COc1cccc(NC(=O)C2CCN(S(=O)(=O)c3c(C)noc3C)CC2)c1 -4.7%
Cc1ccc(C(=O)COC(=O)c2cc(-c3cccs3)nc3ccccc23)cc1 -1.25%
CCc1cccc(NC(=O)Nc2cn(C)c(=O)c3ccccc23)c1 -58.9%
COc1ccc(NC(=O)CN2CCN(Cc3ccccc3Cl)S2(=O)=O)cc1Cl 30.5%
CC(C)NC(=O)c1ccc2c(c1)N(Cc1cccc(Cl)c1)C(=O)c1ccccc1S2=O (stereo not drawn) -10.3%
CCc1ccccc1NS(=O)(=O)c1ccc2c(c1)CCCN2C(=O)C1CCC1 -8.83%
Cc1nn2c(=O)cc(COC(=O)c3ccccc3NC(=O)c3cccs3)nc2s1 -10.4%
COC(=O)c1sc2c(c1C)c(=O)n(-c1ccccc1)c(=O)n2CC(=O)Nc1cccc(C)c1 -13.9%
CCCN1C(=O)C(O)(CC(=O)c2ccc(C(C)C)cc2)c2ccccc21 (stereo not drawn) -19.3%
O=c1[nH]sc2cc(Cl)ccc12 31.9%
CCc1cccc(NC(=O)CCc2c(C)nc3c(-c4ccccc4)c(C)nn3c2C)c1 2.6%
CCN(C(=O)Cn1c(=O)oc2cc(S(=O)(=O)N3CCCCC3)ccc21)c1ccccc1 -4.82%
COc1cc(OC)c(NC(=O)N2CCC(CN3CCOCC3)CC2)cc1Cl -12.5%
CN1CCN(Cc2c(O)ccc3cc(-c4ccc(Cl)cc4)c(=O)oc23)CC1 -1.66%
CCOc1cc(CNC(=O)C2CCN(c3nc4ccccc4[nH]3)CC2)cc(OCC)c1OCC -8.33%
COc1cccc(CC(=O)Nc2ccc(-c3nc4ccccc4s3)cc2Cl)c1 -6.47%
Cc1cc(C)cc(N2CCn3c2nc2c3c(=O)n(C/C=C/c3ccccc3)c(=O)n2C)c1 -0.0641%
CCN(CC)CCCC(C)Nc1ccnc2cc(Cl)ccc12 (stereo not drawn) -8.85% and 15.2%
Cc1c(C)c2cc3c(c(C)c2oc1=O)OCN(CCc1ccccc1)C3 -6.25%
COc1cccc(CNC(=O)c2c(C)oc3ncnc(N4CCOCC4)c23)c1 2.61%
COc1ccc(N2CCN(C(=O)C3Cc4ccccc4N3C(C)=O)CC2)cc1 (stereo not drawn) 1.96%
CS(=O)(=O)c1ccc([C@@H](O)[C@@H](CF)NC(=O)C(Cl)Cl)cc1 -15.8%
Cc1ccc(C)c(NC(=O)CCOc2ccccc2)c1 -16.1%
Cc1c(Cl)cccc1NC(=O)CSc1ccc(-c2ccccn2)nn1 -10.8%
Cc1ccc2nc(-c3ccc(F)cc3)c(NC(C)(C)CC(C)(C)C)n2c1 -5.69%
CCOC(=O)CC(NC(=O)c1cc2cc(Br)cc(OC)c2oc1=O)c1ccc(OC)cc1 (stereo not drawn) -14.1%
CCOC(=O)C(=O)NCC(c1cccnc1)N1CCN(c2ccccc2)CC1 (stereo not drawn) -7.49%
COc1ccc(N2CC(NC(=O)COc3ccc(F)cc3)CC2=O)cc1OC (stereo not drawn) -7.29%
CCOCCn1c(C2CCN(CCc3ccc(C(C)(C)C(=O)O)cc3)CC2)nc2ccccc21 -5.31%
Cn1cnc2c(=O)oc3ccc(S(=O)(=O)N4CCN(c5cccc(C(F)(F)F)c5)CC4)cc3c21 -7.69%
CC(C)(C)OC(=O)N1CCC(c2c(C(=O)Nc3ccc4c(c3)OCCO4)cnn2-c2ccc(F)cc2F)CC1 -25.5%
COc1ccc(S(=O)(=O)NCCc2nnc3ccc(SCC(=O)Nc4cc(C)cc(C)c4)nn23)cc1 -21.9%
CCOC(=O)c1ccc(NC(=O)CSc2ccc(-c3ccccn3)nn2)cc1 10.9%
CCN(CC)c1cc(C)c2cc(NC(=O)c3ccccc3Cl)ccc2n1 44.7%
Cc1ccc(-c2nc3c(c(SCC(=O)N(C)c4ccccc4)n2)Cc2c(CO)cnc(C)c2O3)cc1 25%
O=C(Nc1cccc(OCc2cc(=O)n3ccccc3n2)c1)c1ccccc1Br -8.24%
CCC1CN(C(=O)NCc2ccccc2)c2cc(Cl)ccc2O1 (stereo not drawn) -17%
Cn1c(=O)n(C)c2cc(N3CCOCC3)c(NC(=O)c3ccc(Cl)cc3)cc21 -17.5%
O=C1C(=O)N(C2CCN(S(=O)(=O)c3ccccc3)CC2)CCN1Cc1ccccc1 19.4%
COc1cccc(N2CCN(C(=O)C3CCCN(S(=O)(=O)c4ccc5c(c4)oc(=O)n5C)C3)CC2)c1 (stereo not drawn) 44.4%
COc1ccccc1CCNC(=O)C(=O)NCC(c1ccco1)S(=O)(=O)c1ccc(F)cc1 (stereo not drawn) -12.3%
COc1ccc(OC)c(CCNC(=O)c2cc3cccc4c3n2CC(C)S4)c1 (stereo not drawn) -27.1%
Cn1c(=O)c2c(nc(CN3CCN(c4ccccc4F)CC3)n2Cc2ccccc2F)n(C)c1=O -4.03%
